The record followed here is the supplement of paper PMC3334620.

Whole data set: some 33,000 sequences, median “E-score (-0.5 to 0.5)” near -0.035, cut for the highest 2% near 0.35. The list shows a part of the results.

The test deals with T1, Pdr3 (UniProt P33200).
T1 sequence: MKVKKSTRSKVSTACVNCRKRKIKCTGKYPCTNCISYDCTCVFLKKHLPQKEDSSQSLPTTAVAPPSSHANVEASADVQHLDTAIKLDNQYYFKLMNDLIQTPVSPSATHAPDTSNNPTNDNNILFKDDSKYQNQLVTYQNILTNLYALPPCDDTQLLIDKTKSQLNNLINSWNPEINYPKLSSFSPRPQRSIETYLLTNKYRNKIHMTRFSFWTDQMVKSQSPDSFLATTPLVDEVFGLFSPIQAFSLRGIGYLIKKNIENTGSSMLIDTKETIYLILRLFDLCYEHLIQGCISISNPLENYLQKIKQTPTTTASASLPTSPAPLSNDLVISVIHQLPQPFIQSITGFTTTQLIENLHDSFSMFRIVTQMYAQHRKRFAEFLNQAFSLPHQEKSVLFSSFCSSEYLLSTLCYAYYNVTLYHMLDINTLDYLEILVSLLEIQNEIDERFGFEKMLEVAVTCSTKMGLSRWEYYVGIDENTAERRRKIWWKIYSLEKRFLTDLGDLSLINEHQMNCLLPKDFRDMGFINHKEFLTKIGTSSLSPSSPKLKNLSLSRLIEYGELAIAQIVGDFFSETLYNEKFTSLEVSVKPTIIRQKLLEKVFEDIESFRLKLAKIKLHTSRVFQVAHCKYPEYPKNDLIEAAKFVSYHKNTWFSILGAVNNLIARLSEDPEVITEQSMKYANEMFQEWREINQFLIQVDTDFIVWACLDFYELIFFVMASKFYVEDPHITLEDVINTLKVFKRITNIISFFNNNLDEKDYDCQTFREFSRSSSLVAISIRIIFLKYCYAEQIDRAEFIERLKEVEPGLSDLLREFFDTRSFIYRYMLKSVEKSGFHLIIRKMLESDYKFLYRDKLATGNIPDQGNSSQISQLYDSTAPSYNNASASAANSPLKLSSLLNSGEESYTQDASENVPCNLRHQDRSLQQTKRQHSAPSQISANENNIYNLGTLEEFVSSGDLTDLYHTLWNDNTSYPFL
Kind of test: PBM E-score (8-mer binding enrichment) (E-score (-0.5 to 0.5)); higher = stronger / more preferred TF binding; most listed sequences are background and not binding sites. Conditions: protein concentration: 200 nM; construct: GST-full length. How it is done: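 Universal 'all 10-mer' protein binding microarrays (Agilent AMADID 015681) probed with GST-tagged S. cerevisiae TFs (full-length or DBD) made by in vitro transcription/translation (PURExpress), about 100-200 nM. Bound TF was detected with fluorescent anti-GST. Each ungapped 8-mer (which stands for itself and its reverse complement) is scored by the PBM enrichment score (E-score), a modified Wilcoxon-Mann-Whitney statistic from -0.5 to +0.5, computed with the Universal PBM Analysis Suite. Scale: above 0.35 generally sequence-specific binding.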
In the case of GACTGGGA, the “PBM E-score” value is 0.0484.

Turning to ATAGCGAG, the “PBM E-score” value was -0.0297.

Take GACAGGGC: the “PBM E-score” value worked out at 0.00102.

Consider CTCCCAAC, for which the “PBM E-score” value is -0.195.

ACTCAGCA: the “PBM E-score” value was 0.00842.

CTCGTCGC: the “PBM E-score” value is -0.12.

In the case of AGGTCAAA, the “PBM E-score” value is -0.235.

In the case of GGTCAGAA, the “PBM E-score” value is -0.0505.

On to CCGGAAAC, for which the “PBM E-score” value came to 0.447.

Consider GGAATTAA, for which the “PBM E-score” value stood at 0.212.

For the sequence CATACAAG, the “PBM E-score” value is -0.174.

As to CCATGAGC, the “PBM E-score” value is -0.108.

As for CTCCGAAC, the “PBM E-score” value turned out to be 0.278.

With ATGTGTTG, the “PBM E-score” value was 0.0321.

On to ACTCTCAG, for which the “PBM E-score” value is -0.24.

As to ACCCTGCT, the “PBM E-score” value was -0.22.

Take CGTCGACA: the “PBM E-score” value came out at 0.023.

Consider GACAAGCC, for which the “PBM E-score” value was 0.0478.

Regarding GAGTCGAC, the “PBM E-score” value stood at 0.0255.

Turning to AGAAAGTC, the “PBM E-score” value was -0.104.

Regarding ATAAATCG, the “PBM E-score” value was found to be 0.118.

In the case of ACATAGTC, the “PBM E-score” value was -0.0637.

For the sequence AGGCTTGG, the “PBM E-score” value is -0.0735.

For AACCCGCA, the “PBM E-score” value was determined as 0.18.

As for ATATCCCA, the “PBM E-score” value was determined as 0.229.

Consider CAGTTGTA, for which the “PBM E-score” value was -0.0224.

Take CGTCAATC: the “PBM E-score” value came out at 0.018.

For the sequence AGAAGTAG, the “PBM E-score” value is -0.231.

As for ATTTTGGC, the “PBM E-score” value is 0.16.

Consider ACTGGTTA, for which the “PBM E-score” value was -0.0976.

For ACTTTAAC, the “PBM E-score” value was -0.197.

Consider ACAGGCCA, for which the “PBM E-score” value amounted to 0.0519.

Consider CTTTCCTA, for which the “PBM E-score” value is -0.19.

As for AGGTTGGA, the “PBM E-score” value is 0.0423.

Consider ATCGTGTG, for which the “PBM E-score” value was -0.0855.

With CTGTTGAA, the “PBM E-score” value came to 0.11.

With TACCCCGA, the “PBM E-score” value came out at 0.206.

For the sequence GTACAAAA, the “PBM E-score” value was -0.131.

For ACTCAAGG, the “PBM E-score” value was -0.062.

ATTTCACC: the “PBM E-score” value was -0.0751.

As for CAACGTTC, the “PBM E-score” value is 0.144.

As for AGGCGACG, the “PBM E-score” value is -0.0284.

Consider GGGGACCC, for which the “PBM E-score” value was determined as 0.0311.

In the case of AATCTCCT, the “PBM E-score” value was -0.00705.

Consider CCCGTGAC, for which the “PBM E-score” value is 0.157.

GTCGGATA: the “PBM E-score” value stood at 0.218.

With ACTATATC, the “PBM E-score” value is -0.0346.

Turning to CATAGCTA, the “PBM E-score” value is -0.151.

For ATGGAGAG, the “PBM E-score” value was -0.295.

As to CGAGGCCA, the “PBM E-score” value is -0.00131.

Take ACAAGGGC: the “PBM E-score” value is -0.161.

As for AGTGTAAG, the “PBM E-score” value was -0.148.

As for CCCTAAGG, the “PBM E-score” value is -0.18.

As to AGCGGAGA, the “PBM E-score” value came out at 0.232.

Turning to TCAGTCAA, the “PBM E-score” value was -0.0311.

In the case of GATTGCGC, the “PBM E-score” value is 0.218.

Consider CAGGGCGC, for which the “PBM E-score” value worked out at 0.102.

For GGCGACAA, the “PBM E-score” value was 0.0621.

ACAGCCAA: the “PBM E-score” value was -0.0813.

Regarding GCTCTACA, the “PBM E-score” value was 0.00648.

Regarding AGTACTAC, the “PBM E-score” value is -0.105.

Regarding AGAGAAGC, the “PBM E-score” value was -0.00959.

On to GGCTGGCA, for which the “PBM E-score” value was -0.313.

In the case of AAAATCAG, the “PBM E-score” value was 0.0337.

As for CAAGGTAA, the “PBM E-score” value is 0.0413.

As to ATGGATTG, the “PBM E-score” value came out at 0.0851.

With CTCTTATC, the “PBM E-score” value was 0.105.

CTTATCAA: the “PBM E-score” value is -0.0642.

With GATTTTAA, the “PBM E-score” value was 0.064.

As for ACAACAGG, the “PBM E-score” value was -0.164.

For the sequence CTAAAAAA, the “PBM E-score” value came to 0.0809.

For the sequence ATGAGTGC, the “PBM E-score” value is -0.0172.

On to ATGCAAAT, for which the “PBM E-score” value was found to be 0.0149.

Consider AACCATCA, for which the “PBM E-score” value is -0.067.

ATTCATAC: the “PBM E-score” value is 0.174.

As to ACCGACCA, the “PBM E-score” value was determined as 0.00667.

For the sequence ATCAAGGA, the “PBM E-score” value is -0.112.

On to AAAGATCA, for which the “PBM E-score” value is -0.0548.

As for ACACCTAC, the “PBM E-score” value was -0.00559.

Consider ATGTAAAA, for which the “PBM E-score” value was -0.168.

As for CCTTTCCC, the “PBM E-score” value was 0.235.

For the sequence ACCGTCTC, the “PBM E-score” value was -0.0695.

With CCGTTGAC, the “PBM E-score” value amounted to 0.0583.

Take ATATTCAT: the “PBM E-score” value is -0.0582.

Take CATACCGG: the “PBM E-score” value was 0.189.

As to CCATCTCG, the “PBM E-score” value was found to be 0.102.
